# Measurements reported in PubChem BioAssay AID686971 (National Center for Advancing Translational Sciences (NCATS), 2013).
# Out of some 360,000 compounds screened, about 7,500 (2.1%) were called active. Inconclusive means that the source gave no clear call. Such entries were picked first, then a sample of the others. Calls come from the whole dose curve; as a rule, active = well fitted cell-killing curve with a large enough effect; inconclusive = small, poorly fitted or top-dose-only effect, or effect the other way, or another doubt; inactive = no such curve, though single readings can be large or run the other way. Potencies of inconclusive entries are left out as doubtful fits.
# Experiment: qHTS for induction of synthetic lethality in tumor cells producing 2HG: qHTS for the HT-1080-IDH1KD cell line;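 for activity, negative = toxicity: 0% = DMSO wells and -100% = cell-free medium wells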
# Details: HT-1080 IDH1 knockdown viability, ATP luminescence, 48 h; activity, negative = toxicity: at 46.1 µM (top of the series) unless noted
# Method in brief: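 Cytotoxicity counter-line: IDH1KD HT-1080, 48 h, CellTiter-Glo. Curves classed by r2, magnitude and activity.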
# Potency is the fitted concentration of half-maximal effect; tags give direction and shape of the fitted curve.
Compound,"activity, negative = toxicity",Potency
Cc1ccc2cccc(OCC(=O)Nc3ccc(N4CCOCC4)cc3)c2n1,inconclusive: -11.8% [cytotoxic],
C#CCOCCOCCOCCNc1nc(N2CCN(C(=O)CCCCCCCCCCNC(=O)[C@H](CCCCN)n3cc(C)nn3)CC2)nc(N2CCN(C(=O)CCCCCCCCCCNC(=O)[C@@H]([C@H](C)O)n3cc(C)nn3)CC2)n1,,"inconclusive [cytotoxic, single point]"
N#CC(c1cccc(Cl)c1)c1ccc2c(C(F)(F)F)cc(C(F)(F)F)nc2n1 (stereo unspecified),,"inconclusive [cytotoxic, partial curve]"
COCCCN=C1NN=C(c2cc(C)n(Cc3ccco3)c2C)CS1,,active: 1.64 µM
Cc1c(NC(=S)N2CCN(c3cccc(Cl)c3)CC2)c(=O)n(-c2ccccc2)n1C,inactive: -18.9%,
CCCC12CN3CC(CCC)(CN(C1)C3C(O)C(O)C(O)CO)C2=O (stereo unspecified),inactive: 9.13%,
Cc1ccc(-n2ncc(C(=O)Nc3cc(Cl)ccc3Cl)c2C2CCNCC2)cc1,,"inconclusive [cytotoxic, partial curve]"
COc1cccc(CNC(=O)c2nnn(CC(=O)Nc3cc(C)ccc3C)c2N)c1,,"inconclusive [cytotoxic, partial curve]"
COc1ccc(C(=O)CSc2nnc(-c3cc4ccccc4cc3O)n2Cc2ccco2)cc1,,"inconclusive [cytotoxic, single point]"
N=C1C(c2nc3ccccc3s2)=C(O)CN1Cc1ccccc1,,"inconclusive [cytotoxic, full curve]"
CCOC(=O)C1CCCN(C(=O)COC(=O)c2cccs2)C1 (stereo unspecified),inactive: 16.1%,
N#CC1=C(N)Oc2cc(N)ccc2C1C1CCCCC1 (stereo unspecified),,active: 8.2 µM
COc1ccc(N2CCN(C(=O)c3ccc4c(c3)OCO4)CC2)cc1,inactive: 6.35%,
Oc1ccc(C2=NNC(c3ccc(O)cc3)=NN2)cc1,inactive: 11%,
O=C1Nc2ccc(Br)cc2C12NNc1ccccc1O2 (stereo unspecified),,"inconclusive [cytotoxic, single point]"
Cc1cc(C)n2nc(C(=O)OCC(=O)NC3CCS(=O)(=O)C3)nc2n1 (stereo unspecified),inactive: 7.23%,
Oc1ccc(-c2nc3ccc4ccccc4c3c3c2CCC3)cc1O,,"inconclusive [cytotoxic, single point]"
COc1ccc2c(c1)N(C)/C(=C/c1cccc[n+]1C)S2,,active: 13 µM
COc1ccc(OC)c(Nc2cc(C)nc3ccc(C)cc23)c1,,active: 3.66 µM
OCCCCNCc1cc(Br)ccc1OCc1ccccc1F,inactive: -16.8%,
CCC1(C)Cc2c(sc3c2c(=O)n(C)c2nnc(SCc4ccccc4)n32)CO1 (stereo unspecified),inactive: -3.05%,
CC(=O)c1sc(N/N=C\c2ccccc2O)nc1C,,"inconclusive [cytotoxic, partial curve]"
CNCC/C=C1/c2ccccc2CSc2ccccc21,,"inconclusive [cytotoxic, single point]"
COc1ccc(/C(C)=N/Nc2ncc(Cl)cc2Cl)c(O)c1,,"inconclusive [cytotoxic, full curve]"

Compound,"activity, negative = toxicity",Potency
CC(NC(=O)CSc1nc2ccccc2c(=O)[nH]1)c1ccccc1 (stereo unspecified),,"inconclusive [cytotoxic, partial curve, poor fit]"
COc1ccc(C(=O)N2CCN(CC(=O)N3CCOCC3)CC2)cc1,inactive: 8.61%,
O=C(COc1ccc(Oc2ccccc2)cc1)NCc1cn2ccccc2n1,,active: 3.26 µM
COc1cccc2cc(CC(=O)c3ccccc3)c(=O)oc12,inactive: 18.8%,
COC(=O)c1ccccc1NC(=O)CSc1[nH]c(=O)cc(C)c1C#N,,"inconclusive [cytotoxic, single point]"
CCCN1CCN(C(=S)Nc2ccc3nc(N4CCN(CC)CC4)cc(C)c3c2)CC1,,"inconclusive [cytotoxic, single point]"
CC(=O)c1sc(NC(=O)C(C)C)nc1C,inactive: 10.8%,
COc1ccc(NC(=O)C2C3C=CC(O3)C2C(=O)NCc2cccnc2)cc1 (stereo unspecified),,"inconclusive [cytotoxic, single point]"
CCc1ccc(NC(=O)C(C)OC(=O)c2ccc(NS(=O)(=O)c3ccc(C)c([N+](=O)[O-])c3)cc2)cc1 (stereo unspecified),inconclusive: -36.4% [cytotoxic],
Cc1cnc(NC(=O)c2ccccn2)s1,,"inconclusive [cytotoxic, partial curve]"
COc1cc(OC)c(OC)cc1/C=C/c1cc(C(F)(F)F)[nH]c(=O)n1,inactive: 4.34%,
O=C(OC(C(=O)Nc1cc(Cl)cc(Cl)c1)c1ccccc1)C1=COCCO1 (stereo unspecified),inactive: -1.1%,
COc1cc(OC)c(C(=O)/C=C/c2ccc(OCc3ccccc3)c(OC)c2)c(OC)c1,,"inconclusive [cytotoxic, single point]"
COc1ccccc1NC(=O)NNC(=O)CCc1ccccc1,inactive: 5.03%,
O=C(N/N=C/c1ccccn1)c1[nH]c2ccc([N+](=O)[O-])cc2c1-c1ccccc1,,"inconclusive [cytotoxic, partial curve, poor fit]"
Cc1ccc(S(=O)(=O)N(C)C[C@@H]2OCc3ccccc3-c3c(n(C)c4ccccc34)C(=O)N([C@H](C)CO)C[C@@H]2C)cc1,,"inconclusive [cytotoxic, single point]"
CNc1nc(NCCOc2ccccc2)c2sccc2n1,,"inconclusive [cytotoxic, full curve, poor fit]"
COc1ccc(C=O)cc1COc1ccc(Cl)cc1[N+](=O)[O-],,"inconclusive [cytotoxic, single point]"
Cc1cc(C)nc(-n2nc(C)c(Sc3ccc(F)cc3)c2N)n1,,active: 5.01 µM
CCOC(=O)C1CCCN(C(=O)Cn2sc3nc(C)cc(C)c3c2=O)C1 (stereo unspecified),,"inconclusive [cytotoxic, single point]"
Cc1nc(C(F)(F)F)ccc1C(=O)N1CCC1(C)C(=O)NS(=O)(=O)c1ccccc1Cl (stereo unspecified),inactive: 0.87%,
O=C(Nc1ccc(N2CCOCC2)cc1)Nc1ccc(Cl)c(Cl)c1,,"inconclusive [cytotoxic, single point]"
COc1ccc(/C=N/NC(=O)c2[nH]nc3c2CCc2ccccc2-3)cc1OC,,"inconclusive [cytotoxic, partial curve]"
CS(=O)(=O)N1CCc2cc(C(=O)N3CCN(c4ccccc4F)CC3)ccc21,inactive: -16.6%,

Compound,"activity, negative = toxicity",Potency
CCCCc1ccc(NC(=O)c2c(C)noc2C)cc1,inactive: 21.4%,
Cc1ccc(NC(=O)C2(C)CCN2C(=O)Cc2ccc(C(C)(C)C)cc2)cc1C (stereo unspecified),,"inconclusive [cytotoxic, single point]"
CCCCN(CC)S(=O)(=O)c1ccc(C(=O)N(CCCN(C)C)c2nc3cc(C)cc(C)c3s2)cc1,,"inconclusive [cytotoxic, single point]"
CC(=O)Nc1ccc(NC(=O)C(C)OC(=O)C23CC4CC(CC(Cl)(C4)C2)C3)cc1 (stereo unspecified),,"inconclusive [cytotoxic, partial curve]"
Cc1nc(N=C(N)N)nc2c(C)cccc12,,active: 32.6 µM
Clc1cccc(Cl)c1Cn1cc(Br)cn1,,"inconclusive [cytotoxic, single point]"
O=C(c1cc2n(n1)C(C(F)(F)F)CC(c1ccco1)N2)N1CCc2ccccc2C1 (stereo unspecified),,"inconclusive [cytotoxic, single point]"
O=C1NC(=Nc2ccc(O)cc2)S/C1=C/c1ccco1,,"inconclusive [cytotoxic, full curve]"
Cc1nc2c(OCc3ccc(C(F)(F)F)cc3)cccn2c1N(C)CC1CC1,,"inconclusive [cytotoxic, single point]"
O=C(COC(=O)/C=C/c1cccc(Br)c1)NC1CCCCCC1,inactive: -4.51%,
Cc1cc2oc(=O)cc(CN3CCN(S(=O)(=O)c4ccc5c(c4)OCCO5)CC3)c2cc1C,inactive: -4.27%,
Cc1cc2nc(-c3cccc(Br)c3)c(Cc3ccccc3)n2c(C)c1Br,,"inconclusive [cytotoxic, single point]"
CSc1nc2sc(-c3ccccc3)cc2c(=O)n1N,inactive: 0.815%,
COc1ccc(OC)c2sc(N(CCN(C)C)C(=O)c3cc(Cl)sc3Cl)nc12,inactive: -0.749%,
CCCOc1ccc2c(c1)C(=NN=C(N)N)c1cc(OCCC)ccc1-2,,"inconclusive [cytotoxic, single point]"
CC[C@H]1CN2CCc3cc(OC)c(OC)cc3C2C[C@@H]1C[C@H]1NCCc2cc(OC)c(OC)cc21 (stereo partly specified),,active: 0.0517 µM
CC(C)C[C@@H](COCc1ccc([N+](=O)[O-])cc1)N1CCN(C(=O)c2ccc(C(F)(F)F)cc2)CCC1=O,,"inconclusive [cytotoxic, single point]"
Cc1cc(NC(=O)CCCSc2nc(-c3ccco3)cc(C(F)(F)F)n2)n(-c2ccccc2)n1,,"inconclusive [cytotoxic, single point]"
CCN(c1ccccc1)S(=O)(=O)c1cc(NC(=O)Nc2ccccc2C#N)ccc1Cl,inactive: -22.1%,
CCc1nn(-c2cc(Cl)ccc2OC)c2c1C(=O)CCC2,,"inconclusive [cytotoxic, single point]"
CC(=O)Nc1cccc(-c2cc(NC(C)=O)c3ncc(-c4cccc(C(C)=O)c4)n3c2)c1,,"inconclusive [cytotoxic, single point]"
COC(=O)[C@]12CCCCC=C1N(Cc1cccc3ccccc13)C(=O)[C@H](CC(=O)NCc1ccc(C)o1)C2,,"inconclusive [cytotoxic, single point]"
O=C1C=C(c2cccc3c2Oc2ccccc2S3)C[C@@H](c2ccc(Cl)cc2)C1,inactive: 5.97%,
